The other results are listed elsewhere or left out. The full chains were built here from the parent and the listed change. Values near 0.05 are background.
B1: TEV protease; numbered along this chain (parent)
chain: MGESLFKGPRDYNPISSSICHLTNESDGHTTSLYGIGFGPFIITNKHLFRRNNGTLVVQSLHGVFKVKDTTTLQQHLVDGRDMIIIRMPKDFPPFPQKLKFREPQREERICLVTTNFQTKSMSSMVSDTSCTFPSGDGIFWKHWIQTKDGQCGSPLVSTRDGFIVGIHSASNFTNTNNYFTSVPKNFMELLTNQEAQQWVSGWRLNADSVLWGGHKVFMVKPEEPFQPVKEATQL

Variants of: B1
Assay: raw area under fraction-flipped curve 0-4 h after induction (AUC4h, not background-subtracted), DNA-recorder readout of cleavage of the substrate (dimensionless); higher = more cleavage of the substrate by the protease variant
Settings: temperature: 34 °C; time window: 0-4 h after rhamnose induction
Procedure: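 In vivo DNA recorder in E. coli TOP10(DE3) ΔrhaA at 34 °C. Each TEVp single-site mutant (parent TEVp 0) is paired with a single-site variant of the 7-mer TEVs (canonical ENLYFQ|S). The substrate sits between flexible linkers in a Bxb1-sfGFP-TEVs-SsrA fusion, so cleavage stabilises Bxb1 and speeds flipping of a recombination array, read by NGS. The value is the raw area under the fraction-flipped curve over 0-4 h after rhamnose induction (AUC4h), with ≥20 reads per time point. It is not background-subtracted; inactive controls average about 0.047.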
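Further: Bxb1 expression induced with 0.2% (w/v) L-rhamnose at OD600 near 0.5, cultures sampled hourly, flipped fraction per protease–substrate barcode pair counted by paired-end Illumina sequencing.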

Row | Variant | area with substrate ENLYFAS | area with substrate ENLYFES | area with substrate ENLYFIS | area with substrate ENLYFKS | area with substrate ENLYFLS | area with substrate ENLYFMS | area with substrate ENLYFNS | area with substrate ENLYFPS | area with substrate ENLYFRS | area with substrate ENLYFSS | area with substrate ENLYFTS | area with substrate ENLYFWS | area with substrate ENLYFYS | area with substrate ENLYFCS | area with substrate ENLYFDS | area with substrate ENLYFFS | area with substrate ENLYFHS | area with substrate ENLYFVS | area with substrate ENLYFGS
1 | S26D | 0.0664 | 0.0587 | 0.0636 | 0.0699 | 0.0527 | 0.066 | 0.0727 | 0.0607 | 0.0576 | 0.0665 | 0.0588 | 0.0515 | 0.0636 | – | – | – | – | – | –
2 | L61E | 0.056 | 0.0512 | 0.0684 | 0.066 | – | 0.0684 | 0.043 | 0.0766 | – | 0.0521 | 0.0516 | – | – | 0.0633 | 0.0548 | 0.0632 | 0.0389 | – | –
3 | K46V | 0.0627 | 0.0548 | 0.0543 | – | – | 0.0527 | 0.0562 | 0.0491 | 0.0478 | – | 0.0422 | 0.0589 | 0.0607 | – | 0.066 | – | – | 0.0644 | –
4 | K46W | 0.0503 | 0.0618 | 0.0476 | 0.0715 | – | 0.045 | 0.0651 | 0.0561 | – | 0.0488 | 0.054 | 0.063 | 0.0525 | 0.0596 | – | 0.0617 | 0.0607 | 0.05 | –
5 | K46I | 0.0571 | 0.0655 | 0.048 | 0.073 | 0.0539 | – | 0.0785 | 0.0583 | – | – | 0.061 | 0.0488 | 0.0597 | 0.0613 | 0.0598 | 0.0709 | – | – | –
6 | I36F | 0.0223 | 0.0422 | 0.0508 | 0.0451 | – | 0.0659 | 0.0608 | 0.0552 | 0.0388 | 0.0586 | 0.0506 | 0.0548 | 0.0505 | 0.0538 | 0.0236 | 0.0624 | – | – | 0.0692
7 | F38T | 0.0666 | 0.06 | 0.0529 | 0.0578 | 0.0516 | 0.0489 | 0.0553 | 0.0568 | 0.05 | 0.0595 | 0.0631 | 0.057 | 0.0609 | 0.0504 | 0.0604 | 0.0606 | 0.0569 | 0.0424 | 0.0592
8 | F38N | 0.0546 | 0.0296 | 0.0544 | 0.0536 | – | 0.0396 | 0.0587 | 0.0553 | 0.0453 | – | 0.034 | – | 0.044 | – | – | – | 0.0504 | – | –
9 | G37V | 0.0538 | 0.057 | 0.0656 | 0.0437 | 0.0427 | 0.0602 | 0.0539 | 0.0582 | 0.0597 | 0.0384 | 0.0546 | 0.0633 | 0.0595 | 0.0799 | 0.0528 | 0.0533 | – | 0.0372 | –
10 | G37M | 0.0549 | 0.0564 | 0.0537 | 0.0558 | – | 0.0668 | 0.051 | 0.0683 | 0.0521 | – | – | 0.0488 | – | 0.0505 | 0.0368 | – | – | 0.0588 | 0.045
11 | G28F | 0.0721 | – | 0.0585 | 0.0627 | – | – | – | 0.0557 | – | – | 0.0569 | 0.0527 | 0.0622 | 0.0581 | – | 0.0759 | – | 0.0602 | –
12 | G28K | 0.0614 | 0.0573 | 0.058 | – | – | 0.0705 | 0.0599 | 0.0847 | 0.0785 | – | 0.0559 | 0.0698 | 0.0556 | – | – | 0.0655 | – | 0.0517 | –
13 | K68C | 0.0661 | 0.0585 | 0.063 | 0.0177 | 0.0528 | 0.0678 | – | 0.0878 | 0.0528 | 0.0461 | 0.0195 | 0.0556 | 0.0337 | – | 0.0277 | 0.0586 | 0.0422 | 0.0535 | 0.0675
14 | I42Q | 0.0406 | 0.0508 | 0.0472 | 0.0724 | – | 0.0413 | – | – | 0.0429 | – | – | 0.0466 | – | – | – | 0.0459 | – | – | –
15 | H62S | 0.059 | 0.0505 | 0.0558 | 0.0643 | 0.0402 | 0.0654 | 0.0752 | 0.0386 | 0.0549 | 0.0471 | 0.0728 | 0.0667 | 0.0497 | 0.0646 | 0.0659 | 0.0998 | – | 0.0628 | –
16 | H62R | 0.0388 | – | 0.052 | – | 0.0664 | 0.0786 | 0.0648 | 0.0619 | – | – | – | – | – | – | 0.0465 | 0.0684 | – | – | 0.0507
17 | I43W | 0.0295 | 0.0404 | 0.0533 | 0.0635 | – | 0.0388 | 0.0501 | 0.0518 | 0.043 | – | – | 0.0347 | – | 0.037 | – | 0.0479 | – | 0.0627 | –
18 | S60M | 0.0586 | 0.0581 | 0.0632 | 0.0453 | – | 0.0676 | – | 0.0536 | 0.064 | – | 0.0619 | 0.0568 | – | 0.0496 | – | 0.0627 | 0.0544 | – | 0.0593
19 | S60R | 0.0442 | – | 0.0626 | 0.0515 | – | 0.0743 | 0.0586 | – | – | 0.0421 | 0.0549 | 0.0524 | – | 0.0549 | – | 0.0741 | – | – | 0.0552
20 | S60P | 0.0485 | – | 0.0511 | 0.0517 | 0.044 | 0.0473 | 0.0292 | 0.0512 | 0.0279 | – | 0.047 | 0.0366 | 0.0558 | 0.043 | – | 0.054 | 0.0272 | – | 0.0587
21 | E25D | 0.0373 | 0.0616 | 0.0462 | – | – | 0.0731 | – | 0.0514 | 0.0413 | – | 0.0403 | 0.0621 | 0.062 | 0.0618 | – | 0.0738 | 0.0605 | – | –
22 | E25V | 0.0659 | 0.068 | 0.0624 | – | 0.0447 | 0.067 | 0.0714 | 0.0571 | 0.041 | 0.0627 | – | – | 0.0736 | – | – | 0.0712 | 0.0623 | 0.0524 | –
23 | E25L | 0.0522 | 0.0698 | 0.0513 | 0.0668 | 0.0654 | 0.0692 | 0.067 | 0.0651 | 0.0652 | 0.055 | 0.069 | 0.0594 | – | 0.0578 | 0.0534 | 0.042 | – | 0.0791 | 0.0488
24 | T70G | 0.0591 | 0.0772 | 0.0481 | 0.0573 | 0.0754 | 0.0564 | 0.0504 | 0.0686 | – | 0.0486 | 0.0658 | 0.0579 | – | 0.055 | – | 0.0728 | – | – | –
25 | T70H | 0.0634 | – | 0.0592 | 0.0742 | – | 0.0509 | 0.0709 | 0.0672 | 0.0589 | – | – | – | 0.0343 | 0.058 | – | 0.0642 | – | – | –
26 | L73S | 0.0529 | 0.0367 | 0.048 | 0.0613 | 0.0439 | – | 0.0609 | 0.0476 | 0.0818 | 0.0603 | 0.0398 | – | 0.0646 | 0.07 | – | – | 0.0518 | 0.0578 | –

From the supplement of paper PMC12217912
